“And” between values parts separate entries of the source, which are not always exact repeats. Equal entries are not always repeated. This is one part of the list. These are further read-outs of the screen, such as a control signal, another cell line or another target. No call is given for them. The list favours compounds with an active or inconclusive main result.

These results are taken from PubChem BioAssay AID1434 (Sanford-Burnham Center for Chemical Genomics, 2008).

For the assay, the target named is Runt-related transcription factor 1 (Homo sapiens) + Core-binding factor subunit beta (Homo sapiens) (UniProt Q01196+Q13951). The experiment in a line: inhibitors of RUNX1 Runt–CBFb-SMMHC binding, primary screen, biochemical, FRET, Cerulean-Runt, Venus-CBFb-SMMHC, uHTS (AID 1434).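 Further: 0% = DMSO wells and 100% = wells with excess untagged CBFb-SMMHC; inhibitors lower the FRET ratio by blocking Runt binding to CBFb-SMMHC.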 As to conditions: Cerulean-Runt/Venus-CBFb-SMMHC FRET ratio 530/480, 1 h; retest duplicate average; at 20 µM; stronger effect = higher value.
UniProt Q01196, sequence (Q01196 whole entry, looked up): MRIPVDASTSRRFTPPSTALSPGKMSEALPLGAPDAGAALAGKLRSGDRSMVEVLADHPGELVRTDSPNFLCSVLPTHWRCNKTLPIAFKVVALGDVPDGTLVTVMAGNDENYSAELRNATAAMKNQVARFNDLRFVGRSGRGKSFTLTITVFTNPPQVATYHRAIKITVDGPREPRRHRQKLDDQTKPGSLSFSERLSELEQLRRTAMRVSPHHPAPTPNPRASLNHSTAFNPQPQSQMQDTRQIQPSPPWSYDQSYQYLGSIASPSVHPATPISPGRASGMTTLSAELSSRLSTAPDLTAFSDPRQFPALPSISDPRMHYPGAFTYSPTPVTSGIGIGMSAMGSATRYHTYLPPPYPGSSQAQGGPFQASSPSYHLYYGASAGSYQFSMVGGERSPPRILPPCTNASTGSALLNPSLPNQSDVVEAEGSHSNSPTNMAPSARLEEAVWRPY
UniProt Q01196, sequence (Q13951 whole entry, looked up): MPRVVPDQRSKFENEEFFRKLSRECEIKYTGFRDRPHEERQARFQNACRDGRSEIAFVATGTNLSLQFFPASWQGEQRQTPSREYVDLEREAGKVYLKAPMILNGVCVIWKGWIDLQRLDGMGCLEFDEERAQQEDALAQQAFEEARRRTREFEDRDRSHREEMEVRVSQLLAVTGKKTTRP
As usually defined, the inhibition is the drop in the measured response relative to a control, in per cent. Turning to `COc1cccc(C2C(C(=O)Nc3nc4ccccc4s3)=C(C)NC3=C2C(=O)CC(C)(C)C3)c1OC` (stereo unspecified), the inhibition is 130%.
As for `CCN1CCN(C2=CC3=CC(=C(C#N)C#N)CCC3CC2)CC1` (stereo unspecified), the figure is 70.6%.
The figure for `CCOCCCNC(=S)NCCCNc1nc2cc3c(cc2cc1C#N)OCO3` is 150%; for `COCCCn1c(=N)c(C(=O)NCC2CCCO2)cc2c(=O)n3cccc(C)c3nc21` (stereo unspecified) it is 71.5%.
As for `N#C/C(=C\c1c(N2CCCCC2)nc2ccccn2c1=O)C(=O)NC1CCS(=O)(=O)C1` (stereo unspecified), the figure is 71.5%; as for `COC(=O)C1=CN(CC2CCCO2)C=C(C(=O)OC)C1c1cc(OC)c(OC)c(OC)c1` (stereo unspecified), 90.2%; as for `O=C1/C(=C/N(C(=O)c2ccco2)c2ccc(Cl)cc2)Sc2ccccc21`, 58.7%.
Consider `COc1cccc2c(=O)c3c(cnn3C)n(C)c12`, for which the inhibition was 71.5%.
As for `C=CCc1cc(/C=C/c2nc(O)c([N+](=O)[O-])c(=O)[nH]2)cc(OC)c1O`, the figure is 101%.
As for `CC(C)C(=O)N(c1cc2sc(=O)oc2c2ccccc12)S(=O)(=O)c1cccs1`, the figure is 34.8%.
The figure for `O=C(O)C1Sc2[nH]c(=O)sc2C2c3ccc(O)cc3OC(=O)C12` (stereo unspecified) is 70.6%; for `CCC(C)/C=C/C1=CC2=C(Cl)C(=O)C3(C)OC(=O)C(C(=O)C(C)C(C)O)C3C2=CO1` (stereo unspecified) it is 70.6%.
Turning to `CCCc1c(C)c(C#N)c2nc3ccccc3n2c1NCCCN1CCOCC1`, the inhibition is 54.8%.
On to `COc1ccc(C2CC(=O)N3CN(c4ccc(C)c(Cl)c4)CSC3=C2C#N)cc1OC` (stereo unspecified), for which the inhibition was 136%.
As for `CCN1CCc2c(sc(NC(=S)NC(=O)c3ccco3)c2C(N)=O)C1`, the figure is 152%; as for `CN1CCN(Cc2c(O)ccc3cc(-c4ccccn4)c(=O)oc23)CC1`, 70.6%.
For `Cc1ccc2nc(N3CCN(C(=O)c4cccs4)CC3)c(C#N)cc2c1`, the inhibition amounted to 126%.
The figure for `CC(=O)c1c(N2CCN(C)CC2)nc(=S)n(Cc2ccccc2)c1C` is 90.3%.
The figure for `COc1cc2ccccc2nn1` is 70.6%; for `Nc1cccc2c1C(=O)N(CC(=O)NC13CC4CC(CC(C4)C1)C3)C2=O` it is 70.6%.
`CN1c2ccsc2C(O)=C(C(=S)Nc2ccccc2)S1(=O)=O`: the inhibition was 97.7%.
`Cc1cccn2c(=O)c(/C=C(\C#N)C(=O)NCc3ccco3)c(N3CCCCC3)nc12`: the inhibition came out at 71.5%.
As for `CCCCn1c(NC(C)=O)c(C#N)c2nc3ccccc3nc21`, the figure is 109%.
As for `Cc1ccc(C2=NN=C(NC(=O)CSc3nncn3C)SC2)cc1`, the figure is 61%; as for `CCCCCCc1cc2cc(C(=O)Nc3ccccc3)c(=O)oc2cc1O`, 147%.
The figure for `COC(=O)C1=CN(CC2CCCO2)C=C(C(=O)OC)C1c1ccsc1` (stereo unspecified) is 153%; for `N=c1oc2ccc3ccccc3c2cc1-c1nnc2n1CCCCC2` it is 122%; for `COC(=O)C1=C(CSc2nc3c(cc2C#N)CN(C)CC3)OC(N)=C(C#N)C1c1ccccc1F` (stereo unspecified) it is 69.8%.
As for `CN1CC=C2C(C#N)=C(N)C(C#N)(C#N)C(Cc3ccccc3)C2C1` (stereo unspecified), the inhibition was 71.7%.
The figure for `CNc1nc(-c2cccs2)cc(C(F)(F)F)c1C#N` is 70.6%; for `CN1CCc2c(sc3c2c(NCc2ccco2)nc2nnnn23)C1` it is 76.3%; for `Cn1ccnc1Sc1nc2ccccc2nc1NS(=O)(=O)c1ccccc1` it is 89.3%.
For `COC(=O)C1=CN(Cc2cccs2)C=C(C(=O)OC)C1c1cccc(Cl)c1`, the inhibition is 85.9%.
The figure for `CC1CCCN(Cc2c(O)ccc3c4c(c(=O)oc23)CCCC4)C1` (stereo unspecified) is 92.6%; for `CCNC(=O)/C(C#N)=C/c1c(N2CC(C)OC(C)C2)nc2ccccn2c1=O` (stereo unspecified) it is 92%; for `Cc1ccc2nc3c(cc(S(=O)(=O)c4ccccc4)c(=N)n3Cc3ccco3)c(=O)n2c1` it is 70.6%.
As for `CN1CCc2cccc3c2[C@@H]1Cc1ccc(O)c(O)c1-3`, the figure is 85.5%; as for `C=CCn1c(=N)c(C(=O)NCCCOC)cc2c(=O)n3ccccc3nc21`, 72.9%.
The figure for `CCOC(=O)/C(C#N)=C1/C=C(C)NC(c2ccccc2O)=N1` is 60.9%; for `CN1CCCN(C(=O)Cc2c(Cl)cccc2Cl)c2nc3ccccc3nc21` it is 68.7%; for `CC1C2(C)OC(=N)C(C#N)(C(C)O2)C1(C#N)C#N` (stereo unspecified) it is 150%.
For `COc1cc(NS(=O)(=O)c2ccc(N/C=C\C(=O)c3ccc(F)cc3)cc2)nc(OC)n1`, the inhibition turned out to be 75.3%.
The figure for `Cc1c(Br)c(=O)oc2c(Br)c(O)ccc12` is 70.6%.
The figure for `COc1ccccc1NC(=O)c1cc2ccccc2o/c1=N\O` is 70.8%; for `O=C(O)Cn1c(O)c(C=Nc2ccccc2)sc1=S` it is 58.4% and 78.2%.
The figure for `Cc1cc(C)c2nc3nc(C)c(C)cc3c(N)c2c1` is 70.6%.
For the compound `CCN1CCN(Cc2c(O)ccc3c2O/C(=C\c2ccc(C)cc2)C3=O)CC1`, the inhibition worked out at 70.6%.
As for `CC(C)Sc1nsc2nc(=O)c(/C=C3\C=Nc4ccccc43)c(N)n12`, the figure is 60.6%.
As for `CNC(=O)/C(C#N)=C/c1c(N(Cc2ccccc2)Cc2ccccc2)nc2ccccn2c1=O`, the figure is 90.7%.
The figure for `COC(=O)c1c(/N=C/N(C)C)sc2c1CCN(c1ncc(C(F)(F)F)cc1Cl)C2` is 61.6%.
`O=c1oc2c(CN3CCCCC3)c(O)ccc2cc1-c1nc2ccccc2[nH]1`: the inhibition was found to be 72.9%.
The figure for `CC(C)(O)C1Cc2cc(/C=C/C(=O)O)c(O)cc2O1` (stereo unspecified) is 63.3%; for `N#Cc1cc2c(=O)n3ccccc3nc2n(CCN2CCOCC2)c1=O` it is 182%.
As for `Cc1cccc(-n2c(N)c(C(=O)NCCN3CCOCC3)c3nc4ccccc4nc32)c1`, the figure is 72.9%; as for `CCOC(=O)C1CCN(C(=O)c2cc3c(=O)n4ccccc4nc3n2C)CC1`, 53.5%; as for `COc1ccc(Cn2c(N)c(C#N)c3nc4ccccc4nc32)cc1`, 122%.
As for `Cc1snc(SCC(=O)c2ccc([N+](=O)[O-])cc2)c1C#N`, the figure is 54.2%; as for `N#CC1=C(N)SC(N)=C(C#N)C1c1cccc(Oc2ccccc2)c1`, 71.7%; as for `C/C(=N\NC(=O)CC#N)c1cc2ccc(O)cc2oc1=O`, 70.6%.
For the compound `CCc1cc(=O)oc2c(CN3CCCC3)c(O)c(Cl)cc12`, the inhibition was 164%.
As for `Fc1cccc(NC(=S)NNc2c3ccccc3nc3ccccc23)c1`, the figure is 89.8%.
As for `CCSc1ccc(-c2nn(-c3ccccc3)cc2/C=C(/C#N)C(=O)NCCCOC)cc1`, the figure is 61.6%.
As for `CC1(c2ccc(OC(F)F)cc2)NC(=O)N(/N=C/c2c(O)ccc3ccccc23)C1=O` (stereo unspecified), the figure is 53.7%; as for `Cc1cccn2c(=O)c3cc(C(=O)NC4CCCCC4)c(=N)n(CCN4CCOCC4)c3nc12`, 161%.
Regarding `CCc1ccc2[nH]c3nc(C)cc(C)c3c(=O)c2c1`, the inhibition came to 112%.
As for `CC(C)COC(=O)/C(C#N)=C/c1c[nH]c2ccccc12`, the figure is 56.3%; as for `COC(=O)c1ccc(C(=O)OC)c(N)c1`, 128%.
The figure for `N#Cc1c(NC(=S)NC(=O)c2ccccc2)sc2c1CCN(CCc1ccccc1)C2` is 71.5%; for `Cc1cc(=O)oc(C)c1C(=O)Nc1ccc2ncccc2c1` it is 72.9%; for `Cc1c(O)ccc2c3c(c(=O)oc12)CCC(C)C3` (stereo unspecified) it is 135%.
As for `C=CCOc1ccc(C2OC34CCCCC3C(C#N)(C#N)C2(C#N)C(=N)O4)cc1` (stereo unspecified), the figure is 55.7%; as for `COCCCNC(=S)NCCCNc1nc2cc3c(cc2cc1C#N)OCO3`, 180%; as for `Nc1cccc2nc3ccccc3cc12`, 72.9%.
`COc1ccccc1[C@@H]1C(c2cccc(Cl)c2)=NN(c2ccccc2)[C@H]1C(=O)N1CCOC1=O`: the inhibition is 60.1%.
The figure for `CCOCCCn1c(=NC(=O)c2cccs2)c(C#N)cc2c(=O)n3ccccc3nc21` is 70.6%; for `CCOC(=O)c1c(NC(=O)C(F)(OC)C(F)(F)F)sc2c1CCN(C)C2` (stereo unspecified) it is 61.9%.
The figure for `FC(F)(F)c1nnc2c(Sc3ccccn3)nc3ccccc3n12` is 62.5%; for `CCCn1c(-c2cccs2)nc2nc3ccccc3nc21` it is 127%; for `CCN1C2=C(C(=O)CCC2)C(c2ccc(O)c(Br)c2)C2=C1CCCC2=O` it is 116%.
The figure for `CC(=O)Nc1ccc(S(=O)(=O)Nc2nc3cc4c(cc3nc2Cl)OCCO4)cc1` is 75.2%.
For the compound `COc1cccc(C(=O)/C=C2\Sc3ccccc3N2C)c1`, the inhibition stood at 85.5%.
Take `CCOc1ccc(C(=O)c2cc3ccc(O)cc3oc2=O)cc1`: the inhibition is 137%.
The figure for `Cc1ccc(C2OC34CCCCCC3C(C#N)(C(=N)O4)C2(C#N)C#N)cc1` (stereo unspecified) is 112%.
As for `COc1cc(/C=C(\C#N)C(=O)Nc2cccc3ncccc23)ccc1O`, the figure is 167%; as for `Clc1cncc(Cl)c1NNc1c2ccccc2nc2ccccc12`, 153%.
The figure for `N#Cc1c(-c2ccncc2)c2c([nH]c1=O)-c1ccccc1OC2` is 70.6%; for `COC(=O)C1=CN(C)C=C(C(=O)OC)C1c1ccsc1` it is 127%.
Take `CNC(=O)/C(C#N)=C/c1c(N2CC(C)OC(C)C2)nc2ccccn2c1=O` (stereo unspecified): the inhibition was found to be 184%.
The figure for `O=C(Nc1nc2c(s1)CN(Cc1ccccc1)CC2)c1c(F)cccc1F` is 128%; for `CCCCCn1c(N)c(C#N)c2nc3ccccc3nc21` it is 72.9%.
As to `Cc1cc(O)c(-c2cc(O)c(C)cc2O)cc1O`, the inhibition worked out at 67.9%.
For the compound `COCCNC(=O)c1c(N)n(-c2cccc(C)c2)c2nc3ccccc3nc12`, the inhibition is 108%.
As for `N#Cc1c2c(c(NCc3cccnc3)n3c1nc1ccccc13)CCC2`, the figure is 60%; as for `CCOC(=O)Cc1csc(-n2sc3ccccc3c2=O)n1`, 49.7%.
As for `CCN1CCc2c(C#N)c(N3CCOCC3)nc(NCc3ccccc3)c2C1`, the figure is 71.5%; as for `CCOC(=O)c1cc2ccc(OC(=O)c3ccco3)cc2oc1=O`, 71.5%.
As to `COc1ccc(OC)c(S(=O)(=O)N(C(C)=O)c2ccc3oc(=O)sc3c2)c1`, the inhibition was determined as 52.7%.
The figure for `Cc1ccc2nc3c(cc(C(=O)NCCCn4ccnc4)n3C)c(=O)n2c1` is 102%; for `COCC(C)OC(=O)C(C#N)c1nc2ccccc2nc1N1CCN(Cc2ccccc2)CC1` (stereo unspecified) it is 84.2%; for `Cc1ccc(S(=O)(=O)c2c(N)n(Cc3ccco3)c3nc4ccccc4nc23)cc1` it is 45.7%.
As for `O=CN(/C=C1\Sc2ccccc2C1=O)Cc1ccccc1`, the figure is 72.9%; as for `Cc1cccn2c(=O)c3cc(C#N)c(=O)n(CC4CCCO4)c3nc12` (stereo unspecified), 72.9%; as for `CC(C)N1CCC2(CC1)C(C#N)=C(N)NC(S)=C2C#N`, 60.3%.
The figure for `COc1ccc(C2C3=C(CC(C)(C)CC3=O)N(CCN3CCOCC3)C3=C2C(=O)CC(C)(C)C3)cc1` is 132%.
On to `Cc1ccc(S(=O)(=O)NC(C(=O)Oc2ccc3c(C(F)(F)F)cc(=O)oc3c2)c2ccccc2)cc1` (stereo unspecified), for which the inhibition was 71.5%.
The figure for `O=C(O)C(=O)/C(=C\c1cccc2ccccc12)c1ccc2ccccc2n1` is 82.7%.
